Laboratory results taken from the RNAGym collection of RNA variant scans (doi:10.1073/pnas.2313332121).
Variants at the background level are over-represented here.

B1: TPR 5TU (parent)
chain: GGAUCUUCUCGAUCUAACAAAAAAGACAAAUCUGCCACAAAGCUUGAGAGCAUCUUCGGAUGCAGAGGCGGCAGCCUUCGGUGGCGCGAUAGCGCCAACGUUCUCAACUAUGACACGCAAAACGCGUGCUCCGUUGAAUGGAGUUUAUCAUG

Variants of: B1
Experiment: polymerase ribozyme fitness, log enrichment relative to wild type (log ratio); higher = more active; in vitro selection for triplet polymerase activity
Procedure, shortened: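 Mutant libraries of both subunits of a heterodimeric triplet polymerase ribozyme were PCR-built, transcribed, and selected once in triplicate, with frozen incubation at −7 °C and capture of gel-excised extended constructs on streptavidin beads before RT-PCR. Illumina sequencing of input and output libraries was filtered to genotypes with ≥10 input reads and ≥1 read per output. Fitness is the logarithm of genotype enrichment over wild-type enrichment, using inverse-variance-weighted replicate averages. The logarithm is base 2.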

| Variant | polymerase ribozyme fitness (log ratio) |
| --- | --- |
| C35A G59U C69G | -2.14 |
| G34U A40G G67C G68A G126A | ≤ -4.2 |
| G34A C93A | -3.6 |
| G34A C93G | ≤ -4.2 |
| C35A A60U U77A U82A G83C A97U G126A | -3.93 |
| U33A U45A G81C G92U U146C U151A | ≤ -4.2 |
| U33G U78G G83C A98G U101G C116A G117U | ≤ -4.2 |
| C32U U56A G58A G68A C76A C93A | ≤ -4.2 |
| U33A A52G C93U C96A U134A A142C | ≤ -4.2 |
| C32U G88U G140C A142C | ≤ -4.2 |
| C35A A47U C57U U101A C114G C123U | ≤ -4.2 |
| C35A A39C G58U G62C G67C A73G C93G C96A A98G | ≤ -4.2 |
| U33G G124A U134G | ≤ -4.2 |
| U33C C85A C103A G136A | ≤ -4.2 |
| C35A C38U C93U G136A | ≤ -4.2 |
| G34C G42U G136A | ≤ -4.2 |
| U33G G50C C72A C85G A106G C125A U144A | ≤ -4.2 |
| C32U U55A | -1.62 |
| G34A U55G G84A A138G U146G | ≤ -4.2 |
| U33A G67U A97G A120G | ≤ -4.2 |
| C35A G88U C95G C105U U145G | ≤ -4.2 |

| Variant | polymerase ribozyme fitness (log ratio) |
| --- | --- |
| U33A U45A G68U C87A U127C A137U | ≤ -4.2 |
| G34C G74A U109A C123U C149U | ≤ -4.2 |
| C35A C95G A107C U145G U146G U148G | ≤ -4.2 |
| G34C C51A G58A G59C C96A A107U | ≤ -4.2 |
| G34A A49C C76U C85U C131G | ≤ -4.2 |
| C35A C99U U139A | ≤ -4.2 |
| G34U A47C A49C A66U U102A A107G | ≤ -4.2 |
| U33G A52G U130G C131U G133U U146A | ≤ -4.2 |
| C35A C57U C85U C118U G128A G152U | -3.96 |
| C35A A47C G81U | ≤ -4.2 |
| C35A G74A C95G A121U | ≤ -4.2 |
| C35A C54U A91G G94U | ≤ -4.2 |
| G34A C85A G133A | ≤ -4.2 |
| G34C G50U C54A G94U C99U | ≤ -4.2 |
| C32U G59C G84A | -1.81 |
| C35A A60C A97G U145G | ≤ -4.2 |
| G34C C35U G59A C87A G88U C105A | ≤ -4.2 |
| U33G C95U | -2.22 |
| U33G A39U C43U G84A G117A A119U | ≤ -4.2 |
| C32U U55A C63U C118A | -3.08 |
| U33G A41C G50C A73U G74A A97G G126U U134C | ≤ -4.2 |

| Variant | polymerase ribozyme fitness (log ratio) |
| --- | --- |
| U33C A122G U127G | ≤ -4.2 |
| C32U G68A C85A G94A U139A A147C | ≤ -4.2 |
| U33G U44A C76A G80C A91U A97C U104G U127G | ≤ -4.2 |
| U33C A40U A137G G152C | ≤ -4.2 |
| C32U G58C C63A | -3.84 |
| C32U G84A G112C C116U | ≤ -4.2 |
| G34C C38U G59A U82C C103A C125G | ≤ -4.2 |
| G34A U61A C72A G143C | ≤ -4.2 |
| G34U C85U C103A U135A | ≤ -4.2 |
| U33A A49C C76G C87G U90A C149A | ≤ -4.2 |
| U33G C75A C116U C131A | ≤ -4.2 |
| G34A G46A C76G G136A U144A | ≤ -4.2 |
| C35A A40G C96U U146G | ≤ -4.2 |
| C32U U45A C54A G84A C85A G92A C93A | ≤ -4.2 |
| C32U G80C C87A G133U | ≤ -4.2 |
| G34A A91C C103U U139G G140A U145A U148C | ≤ -4.2 |
| U33A A39C U55A G62A | ≤ -4.2 |
| G34U C57A C103G C108A | ≤ -4.2 |
| C35A C57G G88A | ≤ -4.2 |
| C32U C54A G88C C125G G126U | ≤ -4.2 |
| G34C U55C U77A C93G C108U | ≤ -4.2 |

| Variant | polymerase ribozyme fitness (log ratio) |
| --- | --- |
| G34A C35A U55A G68A C69A C96G G117A G128U | ≤ -4.2 |
| U33G A49C G86U A115G | ≤ -4.2 |
| U33G C35G C99U A137G A138U | ≤ -4.2 |
| U33G G65A C93G U111G | ≤ -4.2 |
| C35A G88C | ≤ -4.2 |
| U33A U53A U56A G80A C95G C99U C132A | ≤ -4.2 |
| U33G A39U A49C A60U G68A G80A C85U C87U A97U A138U | ≤ -4.2 |
| G34U G42A U82C U135C | ≤ -4.2 |
| U33A U55A G83A G126U | ≤ -4.2 |
| U33G G50A A73C C95A C105A A107G G143C | ≤ -4.2 |
| C35A C76A | -4.08 |
| U33G G58A A150G | ≤ -4.2 |
| G34A C85A A91C C103G | ≤ -4.2 |
| G34U C87G G92C C105A G126U | ≤ -4.2 |
| C35A A66C C79G C87U A107C G136C | ≤ -4.2 |
| G34C C51G G59A C75G | ≤ -4.2 |
| U33C C36U A113U U148A | ≤ -4.2 |
| C35A C96U G128C | ≤ -4.2 |
| G34U G83A C129G G141A | ≤ -4.2 |
| C35A C75G G80A U82G C87U A122G G152A | ≤ -4.2 |
